The campaign covered roughly 50,000 compounds. About 800 (1.6%) showed an effect of 50% or more. Some of the results follow.
Target: Bcl-2-like protein 10 (Homo sapiens) (UniProt Q9HD36)
Assay: TR3 peptide-Bcl-B binding displacers, biochemical primary FP assay, phenotype converters (AID 1240);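 further: 0% = Bcl-B with tracer peptide and DMSO and 100% = tracer peptide lacking Bcl-B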
Details: GST-Bcl-B / FITC-TR3 peptide fluorescence polarization; stronger effect = higher value; compound at 3.75 mg/L

Chain of UniProt Q9HD36 (Q9HD36 whole entry, looked up): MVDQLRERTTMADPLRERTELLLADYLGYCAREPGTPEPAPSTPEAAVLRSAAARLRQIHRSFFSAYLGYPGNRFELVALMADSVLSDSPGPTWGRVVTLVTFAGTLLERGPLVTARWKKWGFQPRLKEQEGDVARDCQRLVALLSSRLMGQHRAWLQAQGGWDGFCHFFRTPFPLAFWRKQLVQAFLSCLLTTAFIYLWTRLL

Compound	displacement [%]
CC(=O)c1ccc(NC(=O)CSc2ncn[nH]2)cc1	8.2
O=C(NCc1cccnc1)c1ccc(-c2ccccc2)cc1	-9.1
Cc1cccc(NC(=O)c2c(NC(=O)C(C)(C)C)sc3c2CCC3)c1	-2.3
Cc1ccc(C(C)NC(=O)Cc2ccccc2)c(C)c1 (stereo not given)	10.5
O=C(NCc1ccncc1)c1cccc(Br)c1	23.9
O=C(/C=C/c1ccc(Cl)cc1)Nc1ccc(F)c([N+](=O)[O-])c1	11.9
COc1ccc(C2CC(=O)C3=C(C2)Nc2ccccc2NC3c2ccccc2OC(C)C)cc1OC (stereo not given)	-1.9
O=C(COc1cc2oc(=O)cc(-c3ccccc3)c2cc1Cl)c1ccc(Cl)cc1	-10
Clc1ccc(N=Cc2cccc(OCc3ccccc3)c2)cc1Cl	-2.7
C=CCN1C(=O)/C(=C\c2cc(OC)c(O)c([N+](=O)[O-])c2)C(=O)NC1=S	22.2
N#CCCOCc1cccc2ccccc12	12.6
CC(C)c1ccc(NC(=O)Nc2cccc3ccccc23)cc1	12.9
CNC(=O)CC1Sc2ccccc2NC1=O (stereo not given)	-9.6
Cc1ccc(-n2c(C)cc(/C=N/NC(=O)c3ccncc3)c2C)c(C)c1	-16.7
O=S(=O)(c1ccccc1)N1CCN(Cc2ccncc2)CC1	-1.9
COc1ccc(S(=O)(=O)NCCN2CCOCC2)cc1	2.1
C/C(=C\C(=O)c1ccccc1)Nc1cc(C)ccc1Cl	4.5
N/C(=N\OC(=O)c1ccc(Cl)c([N+](=O)[O-])c1)c1ccccc1	-3.2
CN(C(=S)Nc1ccccc1)c1ccccc1	3.5
N/C(=C\C(=O)c1ccccc1O)C(Cl)(Cl)Cl	-1.4
COc1ccc(-c2cc(C(=O)Nc3cc([N+](=O)[O-])ccc3Cl)c3ccccc3n2)cc1OC	-1.5
CC(C)COc1ccc(C(=O)Nc2ccc3oc(-c4cccnc4)nc3c2)cc1	-6.5

Compound	displacement [%]
CC(C(=O)NCc1ccco1)N1C(=O)c2ccccc2C1=O (stereo not given)	13.1
Cc1c(Nc2nc3nonc3nc2Nc2cccc(Cl)c2)c(=O)n(-c2ccccc2)n1C	10
Cc1cccc(OCC(=O)Nc2cccc(Br)c2)c1	4.9
COC(=O)C1=C(C)NC2=C(C(=O)CC(c3ccccc3Cl)C2)C1c1ccc(Cl)cc1 (stereo not given)	5.2
O=C(COc1ccc(Cl)cc1)NC1=NN(c2ccccc2)C(=O)C1	-11
CCOc1ccc2cc(S(=O)(=O)N3CCCCC3)ccc2c1	-5.5
Cc1onc(-c2ccccc2Cl)c1C(=O)N1CCCc2ccccc21	7.4
Cc1[nH]nc(-c2ccccc2)c1Sc1ccccc1	-68.1
COC(=O)c1ccc(-n2ncnc2-c2ccc(Br)cc2)cc1	-5.4
COc1ccc(NC(=O)c2ccc([N+](=O)[O-])cc2)cc1Cl	4.7
O=C1N=C(N2CCCC2)S/C1=C\c1ccccc1	-5.7
O=C(Cc1ccccc1)NC(NC(=O)Cc1ccccc1)c1ccc(Br)cc1	3.7
O=[N+]([O-])c1ccc(N2CCOCC2)cc1N1CCCC1	-4.6
COc1ccc(N2C(=O)NC(=O)/C(=C/c3ccc(OCc4ccccc4F)cc3)C2=O)cc1	63.1
Cc1cc(-c2cc(-c3ccc(Cl)cc3)nc(N)c2C#N)co1	19
CC(=O)c1ccc(N2CCN(S(=O)(=O)c3ccccc3)CC2)c(F)c1	0.7
O=C(/C=C/c1ccc(F)cc1)Nc1ccc(F)c([N+](=O)[O-])c1	-3
CC(Oc1ccc(Cl)cc1Cl)C(=O)Nc1c(Cl)cccc1Cl (stereo not given)	3.8
COc1cccc(N2C(=O)CC(N3CCN(CCN=CC4=C(O)CC(C)(C)CC4=O)CC3)C2=O)c1 (stereo not given)	-7.7
COc1ccc(C2N(c3ccccc3)CCN2c2ccccc2)cc1O	-1.8
O=C(CN(c1cccc([N+](=O)[O-])c1)S(=O)(=O)c1ccccc1)NCCSc1ccccc1	2
COc1ccc(N(CC(=O)Nc2ccc(OC)cc2OC)S(=O)(=O)c2ccccc2)cc1	1.9

Compound	displacement [%]
COc1ccccc1N=C(NOCc1ccc(Cl)cc1Cl)c1nonc1N	-7.3
Cc1ccc(-c2nnc(Nc3ccc4c(c3)nc(C)n4C)c3ccccc23)cc1	2.4
CCCC(=O)Nc1ccc(-c2cc3ccccc3oc2=O)c(C)c1	-4.7
CC(=O)c1cccc(Nc2nc(-c3ccc(Br)cc3)cs2)c1	8.2
O=C(Nc1ccc(I)cc1)c1ccc(I)cc1	-4.7
COc1ccc(N(CC(=O)Nc2ccc(C(C)C)cc2)S(=O)(=O)c2ccccc2)cc1Cl	13.6
O=C(NC(=S)Nc1ccc(Cl)c(-c2nc3ccccc3o2)c1)c1ccccc1Cl	6.1
C/C(=N\N1CCN(Cc2cccc3ccccc23)CC1)c1ccccc1O	-12.3
Cc1ccc(/C=C/C(=O)NC(=S)Nc2ccc(S(N)(=O)=O)cc2)cc1	8.5
CCOc1ccccc1NC(=O)c1cccc(C)c1	-11.3
O=C(Nc1ccc(OCC(=O)N2CCOCC2)cc1)c1ccccc1F	-6
CN1C(=O)/C(=C/c2ccc(O)c(O)c2)SC1=S	14
COc1ccc(C(=O)Nc2cc(C(F)(F)F)cc(C(F)(F)F)c2)cc1OC	-5.6
O=C(NN1C(=O)c2ccccc2C1=O)c1cccs1	2.1
Cc1onc(-c2c(Cl)cccc2Cl)c1C(=O)Nc1cc(C(N)=O)cc(C(N)=O)c1	-1.6
O=C1CC(N2CCN(c3ccc(Cl)cc3)CC2)C(=O)N1c1ccc(Cl)c(Cl)c1 (stereo not given)	1.3
Cc1nc2cc(-c3cccc(F)c3)[nH]n2c(=O)c1Cl	11.8
CCc1nnc(NC(=O)Nc2ccc(Cl)cc2)s1	12.7
Cc1ccc(Cl)cc1NC(=O)c1cccc(N(C)C)c1	13.8
COc1ccc(C(=O)N/N=C(/C)c2ccc3c4c(cccc24)CC3)cc1	-11.3
COc1ccc(C)cc1NC(=O)c1cc(C(F)(F)F)cc(C(F)(F)F)c1	7.7
Cc1cc(C)c(NC(=O)COc2cccc(Br)c2)c(C)c1	-5.8

Compound	displacement [%]
CCN1C(=O)/C(=C\c2cccc([N+](=O)[O-])c2)C(C(=O)OC)=C1C	-3.4
O=C(N=Nc1c(O)n(CN2CCCCCC2)c2ccccc12)c1cccnc1	23.4
FC(F)(F)Oc1ccc(N=Cc2c[nH]c3ccccc23)cc1	5.5
O=CNc1nonc1NNc1ccccc1	9.5
COc1cccc(/C=C(\C#N)c2nc3ccc(C)cc3[nH]2)c1O	10.4
C=CCNc1ncnc2ccc(Br)cc12	8.2
CC(O)c1ccc(NC(=O)c2cnn3c2NC(c2cccs2)CC3C(F)(F)F)cc1 (stereo not given)	6.5
COc1cc(OC)c(OC)cc1CN1CCN(C2CCCCC2)CC1	4.9
COc1ccc(/C=C2\C(=O)NC(=O)N(c3cccc(C)c3)C2=O)c(C)c1	-8.9
CCOC(=O)c1c(NC(=O)c2ccc(C)o2)sc2c1CCC(C)C2 (stereo not given)	7.9
Cc1ccc(S(=O)(=O)Oc2cccc(/C=c3/sc4nc5ccccc5n4c3=O)c2)cc1	-0.5
CCOP(=O)(OCC)/C(=N/OC(=O)c1ccccc1C)C(N)=O	-2.7
COc1ccccc1NCC(O)Cn1c2ccc(Cl)cc2c2cc(Cl)ccc21 (stereo not given)	-3.3
COc1ccccc1C(=O)N/N=C(\C)c1cccnc1	-5.4
Cc1cccc(C)c1OCCCCN1CCOCC1	0
Cc1nccn1S(=O)(=O)c1ccc(Cl)cc1Br	5
CCOC(=O)c1c(NC(=O)C2C3C=CC(C3)C2C(=O)O)sc2c1CCC(C(C)(C)C)C2 (stereo not given)	0.4
CCOc1ccc(C(=O)Nc2ccc(Cc3ccncc3)cc2)cc1Br	-56.1
Cc1ccc(N2C(=O)C3ON(c4ccccc4)C(c4ccc(F)cc4)C3C2=O)cc1 (stereo not given)	7.9
O=C(Nc1ccc(-c2nc3ccccc3o2)cc1)c1ccc2c(c1)OCCO2	3.4
Oc1ccc2ccccc2c1/C=N/N1CCN(c2ccccn2)CC1	-4
Cc1cc(OCC(=O)Nc2cc([N+](=O)[O-])ccc2Cl)ccc1Br	4.6

Compound	displacement [%]
O=C1CC(N2CCN(c3ccc([N+](=O)[O-])cc3)CC2)C(=O)N1CCc1ccccc1 (stereo not given)	4.5
COc1ccc(/C=C2\C=C(c3ccc(C)cc3)OC2=O)cc1C	10.4
COc1ccc(CN=C(Nc2ccccc2)SC2CC(=O)N(c3cccc(Cl)c3)C2=O)cc1 (stereo not given)	-4.6
COc1ccc(/C=C2/SC(=S)N(Cc3ccccc3)C2=O)c(OC)c1	-4
O=C(Sc1nnc(-c2cccc(Br)c2)o1)c1ccc([N+](=O)[O-])cc1	12.1
O=S(=O)(Nc1ccc(Nc2ccc(F)cc2)cc1)c1ccc(F)cc1	12.4
COc1ccc2c(c1)c(/C=C/c1nc3ccccc3c(=O)n1-c1ccccc1[N+](=O)[O-])c(C)n2C	-5.3
CC(C)NC(=O)C(=O)NCc1ccc2c(c1)OCO2	0.4
COc1ccc(C(=O)CN2C3=NCCCN3c3ccccc32)cc1OC	-8.1
Cc1ccc(O)c(C2=NOC(O)(C(F)(F)F)C2)c1 (stereo not given)	-5.2
O=C(CSc1nc2ccccc2s1)N/N=C/c1cccc2ccccc12	19.7
Cc1ccc2c(Cl)c(C(=O)NC34CC5CC(CC(C5)C3)C4)sc2c1	-6.3
O=C(Nc1ccc(I)cc1Cl)c1ccc(-c2ccccc2)cc1	-5.6
O=C(COc1ccc2ccccc2c1)NCc1ccccn1	-0.7
CC(=O)C1=C(C)NC(C)=C(C(C)=O)C1c1cn(-c2ccccc2)nc1-c1cccs1	6.8
COC(=O)c1ccc2c(c1)C1C=CCC1C(c1cccc3ccccc13)N2 (stereo not given)	-0.3
COc1cc(C(=O)Nc2cc(C(F)(F)F)ccc2Cl)cc(OC)c1OC	4.6
CCOC(=O)c1c(C)nc(C)c(C(=O)OCC)c1-c1ccccc1	3.7
O=C(COc1ccc2c(c1)oc(=O)c1ccccc12)c1ccccc1	19.5
Cc1cc(C)cc(N2C(=O)NC(=O)/C(=C\c3cc(Br)ccc3OCC(=O)O)C2=O)c1	-7.4
Cc1ccc(NCCC(=O)c2ccc(C)o2)cc1	14.9
Cc1cccc(C)c1-n1c(C)cc(/C=N/NC(=O)c2ccncc2)c1C	-13.1
